Assay results reported in the supplement of paper PMC4166925.
± gives the standard deviation of the averaged measurements. In all, about 33,000 sequences were measured (“E-score (dimensionless, -0.5 to 0.5)”: median about -0.046, highest 2% from about 0.36 on). The list shows a part of the results.

These sequences were tested on T1, SpTbr T-box DNA-binding domain (GST fusion) (assay: PBM E-score of 8-mer (E-score (dimensionless, -0.5 to 0.5)); Tbr is Tbrain of the sea star Patiria miniata (Pm) or the sea urchin Strongylocentrotus purpuratus (Sp); higher = stronger binding preference; most listed sequences are background and not binding sites). Conditions: the construct has about 5 more residues each side.
T1 sequence: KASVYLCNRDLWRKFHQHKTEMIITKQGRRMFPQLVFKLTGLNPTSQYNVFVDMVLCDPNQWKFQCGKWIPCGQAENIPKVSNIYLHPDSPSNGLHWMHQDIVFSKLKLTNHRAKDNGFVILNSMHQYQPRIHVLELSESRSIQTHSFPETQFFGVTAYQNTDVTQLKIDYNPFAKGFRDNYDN
Procedure, shortened: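 Each ungapped 8-mer received an enrichment E-score from the Universal PBM Analysis Suite, averaged over duplicate arrays. The proteins were Tbr T-box DNA-binding domains, covering the whole T-box plus about five flanking residues, fused to GST and expressed in BL21 E. coli at 20 °C before glutathione affinity purification. Universal Agilent oligonucleotide arrays were made double-stranded by primer extension and incubated with 200 nM protein in PBS (pH 7.5). The arrays were then scanned and quantified, and every 8-mer was scored from probe intensities.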

Sequence | PBM E-score of 8-mer
CCTGGCAA | -0.0798 ± 0.0092
GGCCTCGA | -0.151 ± 0.065
ATTACCGC | -0.0899 ± 0.022
GTCACTAA | 0.261 ± 0.024
AGGCGCGA | 0.471 ± 0.0037
GCTTCCCC | -0.0756 ± 0.059
ATCAACCC | -0.0585 ± 0.0049
TCAAGGGA | -0.152 ± 0.026
CATTTCCG | -0.0659 ± 0.025
AAGGGTGC | 0.33 ± 0.025
TAGTCTCA | 0.0587 ± 0.025
ACCCCACA | 0.26 ± 0.035
CAAAAAGA | -0.29 ± 0.045
CGTTAGGC | 0.0761 ± 0.053
ACCCAGAG | -0.0586 ± 0.02
CTACGACA | 0.0692 ± 0.056
CCCGCCAG | 0.129 ± 0.05
CTCGGAGC | -0.168 ± 0.078
AACCTACT | -0.2 ± 0.031
CTACACAC | 0.226 ± 0.066
AATAAGCG | 0.133 ± 0.049
CCCGTAGC | -0.00901 ± 0.077

Sequence | PBM E-score of 8-mer
AATTCACA | 0.297 ± 0.035
CAACGTTA | 0.0311 ± 0.014
GACGGGGC | -0.191 ± 0.0037
GTATTCCA | -0.17 ± 0.0078
CGAAGTGC | 0.272 ± 0.024
CCTAGGCG | -0.0224 ± 0.056
TTACTAAA | -0.1504 ± 0.00043
ATAATGGA | -0.0896 ± 0.058
GTCAGAAA | -0.086 ± 0.061
ACACAACC | 0.072 ± 0.08
CATGATTC | -0.136 ± 0.037
GGCAAGTA | -0.0202 ± 0.02
AATAAAAC | 0.00677 ± 0.12
CGTGCAGC | 0.0785 ± 0.043
GGGGGCCA | -0.016 ± 0.048
ATTACTAA | -0.163 ± 0.074
ACCCATTC | -0.15 ± 0.062
ATACTATG | -0.111 ± 0.086
ACATGCTG | 0.0406 ± 0.061
CCTTAACG | -0.0454 ± 0.1
AAATGCGG | 0.0263 ± 0.025
CACCACCA | 0.145 ± 0.0054

Sequence | PBM E-score of 8-mer
ACAATGTG | 0.315 ± 0.01
GTTTGAAA | -0.106 ± 0.041
CGCTTACC | 0.027 ± 0.061
GCCACATA | 0.164 ± 0.021
ACATGCGT | 0.0995 ± 0.026
CGACGGAC | 0.064 ± 0.0015
GATGTGTA | 0.316 ± 0.016
CCATTGGA | -0.0636 ± 0.036
CTTTGCGC | 0.22 ± 0.034
CATTTCGC | 0.198 ± 0.018
ATCAAGCG | 0.0706 ± 0.0077
AAAATGAA | -0.117 ± 0.0059
GCGCATTA | -0.0563 ± 0.021
AGATCTTA | -0.217 ± 0.0091
GTTACTCA | -0.0158 ± 0.021
CTTGCGCA | 0.113 ± 0.01
CCGACGGC | -0.0278 ± 0.065
CGTGATGC | 0.0423 ± 0.051
CGGGATGC | -0.205 ± 0.019
CGTGTCAA | 0.4367 ± 0.0011
CAGTCCCG | -0.0798 ± 0.02
GCGATTAA | 0.153 ± 0.073

Sequence | PBM E-score of 8-mer
AACTATAT | -0.0107 ± 0.13
AGTAGCTG | -0.0208 ± 0.045
CGTGCTAG | 0.141 ± 0.05
GAGGCGTA | 0.121 ± 0.0013
ATCATCTG | -0.164 ± 0.031
AAGATTTC | -0.0323 ± 0.07
ACCATTTG | -0.106 ± 0.023
TCAGACCA | -0.0104 ± 0.016
GAACTAAA | -0.024 ± 0.011
AGCTTGAA | -0.159 ± 0.078
CCTTATGA | 0.0906 ± 0.065
CCTTTCAG | -0.131 ± 0.026
GGAGCGCA | -0.0559 ± 0.069
CAAGTTAC | 0.0936 ± 0.015
CGCTTCCA | 0.0706 ± 0.0021
GTTTGGAA | -0.13 ± 0.041
ATTTTACC | -0.203 ± 0.0053
GGACAGAC | -0.0879 ± 0.013
CGCGACAC | 0.35396 ± 0.00035
ATAGGCGG | -0.0783 ± 0.012
